Structures can show the parent of a compound that is named as a salt. The list shows a part of the results. Cut-off read from the data, not from the text of the source: active = -2 or less and inactive = the rest. Repeats are few or missing, and single values can be far off.
What follows are compounds tested on hPSC-derived cortical neurons (WA09) (assay: nuclei number (viability) z-score; higher = more surviving cells). Conditions: 5 µM; treatment: days 7-14 after plating, readout day 21.
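Note: nuclei counted from DAPI counterstain by automated high-content image analysis, four fields per well at ×20 in 384-well plates, with sequential b-score then z-score normalization.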

Row | Compound | nuclei number (z-score)
1 | CCN(CC)CC(=O)Nc1c(C)cccc1C [Lidocaine] | inactive: 2.13
2 | CCN(CC)CC(=O)Nc1c(C)cccc1C [Lidocaine hydrochloride] | inactive: 0.404
3 | CC(=O)c1cc2c(o1)C(=O)c1ccccc1C2=O [Napabucasin] | inactive: -0.0522
4 | CN1CCN(C(c2ccccc2)c2ccccc2)CC1 [Cyclizine 2HCl] | inactive: 0.0426
5 | CC(C)OC(=O)C1=CN(C(=O)c2ccc(F)c(F)c2)CC(C)(C)c2c1[nH]c1ccccc21 | inactive: 0.449
6 | COC(=O)[C@@H]1CC2=CC(=O)CC[C@]2(C)[C@@]23O[C@@H]2C[C@@]2(C)[C@@H](CC[C@@]24CCC(=O)O4)[C@H]13 [Eplerenone] | inactive: 0.156
7 | Clc1ccc(C(c2c[nH]c3ccccc23)c2c[nH]c3ccccc23)cc1 | inactive: 5.36
8 | CC(C)(C)[N+]([O-])=Cc1ccc(S(=O)(=O)O)cc1S(=O)(=O)O | inactive: -0.00725
9 | O=C(/C=C\n1cnc(-c2cc(C(F)(F)F)cc(C(F)(F)F)c2)n1)N1CC(F)(F)C1 | active: -4.46
10 | C[C@]12CC[C@@H]3c4ccc(OC(=O)c5ccccc5)cc4CC[C@H]3[C@@H]1CC[C@@H]2O [Estradiol Benzoate] | inactive: 0.65
11 | Cc1ccc(F)c(NC(=O)Nc2ccc(-c3cccc4[nH]nc(N)c34)cc2)c1 [Linifanib (ABT-869)] | inactive: 1.99
12 | CC[C@@H](C)Nc1cc(C(=O)N[C@H]2C[C@H]3CC[C@@H](C2)N3c2ccc(C(=O)C3CC3)cn2)c(C)cc1C(N)=O | active: -2.42
13 | Cc1ccc(NC(=O)c2cccc(C(C)(C)C#N)c2)cc1Nc1ccc2ncn(C)c(=O)c2c1 | inactive: 0.473
14 | OCCN(CCO)c1nc(N2CCCCC2)c2nc(N(CCO)CCO)nc(N3CCCCC3)c2n1 [Dipyridamole] | inactive: -0.295
15 | CC[C@H](CO)Nc1nc(NCc2ccccc2)c2ncn(C(C)C)c2n1 [Roscovitine (Seliciclib_CYC202)] | inactive: -0.18
16 | CCn1c2ccccc2c2cc(CNCc3ccccc3OC)ccc21 | inactive: -1.63
17 | CC(C)(CO)C(O)C(=O)NCCC(=O)O [Calcium D-Panthotenate] | inactive: -0.644
18 | CC(C)OC(=O)OCOP(=O)(CO[C@H](C)Cn1cnc2c(N)ncnc21)OCOC(=O)OC(C)C [Tenofovir Disoproxil Fumarate] | inactive: 0.531
19 | CCN(CC)CCNC(C(=O)OCCC(C)C)c1ccccc1 (stereo unspecified) [Camylofin Chlorhydrate] | inactive: 3.33
20 | C[C@@H]1C[C@H]2[C@@H]3CCC4=CC(=O)C=C[C@]4(C)[C@@]3(F)[C@@H](O)C[C@]2(C)[C@@]1(O)C(=O)COP(=O)(O)O [Dexamethasone Sodium Phosphate] | inactive: -0.461
21 | Cc1cccc(CC(=O)N2CCc3c2ccc(-c2cn(C)c4ncnc(N)c24)c3F)n1 | inactive: -0.0309
22 | COc1ccc(-n2c(SCCCN3C(=O)c4cccc5cccc(c45)C3=O)nnc2-c2ccncc2)cc1 | inactive: -0.112

Row | Compound | nuclei number (z-score)
23 | Cc1c(-c2cnccn2)ssc1=S [Oltipraz] | inactive: 0.156
24 | N#Cc1cc2cc(CN3CCC(Nc4ncnc5sc(CC(F)(F)F)cc45)CC3)ccc2[nH]1 | active: -2.12
25 | Cc1ccc(=O)n(-c2ccccc2)c1 [Pirfenidone] | inactive: -0.453
26 | Nc1c2ccccc2nc2ccccc12 [9-Aminoacridine] | inactive: -0.521
27 | CCN1CCN(Cc2ccc(C(=O)Nc3ccc(C)c(Oc4ccc5c(c4)CC(=O)N5)c3)cc2C(F)(F)F)CC1 | inactive: -0.311
28 | N[C@@H](Cc1cc(I)c(Oc2ccc(O)c(I)c2)c(I)c1)C(=O)O [Liothyronine Sodium] | inactive: 0.00511
29 | COc1ccc(C2CC(=O)c3c(O)cc(OC4OC(COC5OC(C)C(O)C(O)C5O)C(O)C(O)C4O)cc3O2)cc1OC (stereo unspecified) [Methyl-Hesperidin] | inactive: -0.506
30 | CN(C)C(=O)[C@H](O)[C@H](Cc1ccccc1)NC(=O)c1cc2cc(Cl)ccc2[nH]1 | inactive: 2.04
31 | O=C(Oc1cc(S(=O)(=O)c2ccccc2)ccc1[N+](=O)[O-])c1ccc(Cl)cc1 | inactive: 5.03
32 | Cc1cc(CN2CCN(c3c(Br)cnc4nc(-c5ccc(N6CCN(C)CC6)cc5)[nH]c34)CC2)no1 | active: -5.86
33 | CC(C)(O)CNc1ncc(-c2ccnc(Nc3ccnc(Cl)c3)n2)c(CC2CC2)n1 | active: -4.83
34 | CNc1nc(Nc2cn(C(C)(C)C#N)nc2C)ncc1C(F)(F)F | inactive: -0.466
35 | C=CC(=O)N1C/C(=C\c2ccc([N+](=O)[O-])cc2)C(=O)/C(=C/c2ccc([N+](=O)[O-])cc2)C1 | inactive: -1.35
36 | COC(=O)C1=C(C#N)NC(C)=C(C(=O)OC(C)C)C1c1cccc([N+](=O)[O-])c1 (stereo unspecified) [Nilvadipine] | inactive: 0.67
37 | COCCCN1CCC(NC(=O)c2cc(Cl)c(N)c3c2OCC3)CC1 [Prucalopride Succinat] | inactive: 3.71
38 | COCCCN1CCC(NC(=O)c2cc(Cl)c(N)c3c2OCC3)CC1 [Prucalopride] | inactive: -0.877
39 | O=C(CCCN1CCN(c2ccccn2)CC1)c1ccc(F)cc1 [Azaperone] | inactive: 0.296
40 | CCCCCCNC(=O)Nc1ccc(S(=O)(=O)Nc2ccc(CCNC[C@H](O)COc3ccc(O)cc3)cc2)cc1 | inactive: -1.12
41 | O=C(Nc1ccncc1)c1cc([N+](=O)[O-])ccc1Cl | inactive: 1.65
42 | C[C@@H](O)[C@@H]1NC(=O)[C@H](CCCCN)NC(=O)[C@@H](Cc2c[nH]c3ccccc23)NC(=O)[C@H](Cc2ccccc2)NC(=O)[C@@H](NC(=O)[C@H](N)Cc2ccccc2)CSSC[C@@H](C(=O)N[C@H](CO)[C@@H](C)O)NC1=O [Octreotide Acetate] | inactive: -0.878
43 | c1ccc(CNc2ncnc3[nH]cnc23)cc1 [6-Benzylaminopurine] | inactive: 3.86
44 | C[C@H](CCC(=O)O)[C@H]1CC[C@H]2[C@@H]3[C@@H](O)C[C@@H]4C[C@H](O)CC[C@]4(C)[C@H]3CC[C@]12C [Ursodiol] | inactive: 0.544

Row | Compound | nuclei number (z-score)
45 | COc1cc2/c(=N/c3ccc(Br)cc3F)nc[nH]c2cc1OCC1CCN(C)CC1 [Vandetanib (ZD6474)] | inactive: 1.01
46 | C=C[C@@]1(C)CC(=O)[C@]2(O)[C@@]3(C)[C@@H](O)CCC(C)(C)[C@@H]3[C@H](O)[C@H](OC(C)=O)[C@@]2(C)O1 [Forskolin] | inactive: 0.339
47 | O=C(CCCCCN1C(=O)c2cccc3cccc(c23)C1=O)NO [Scriptaid] | active: -4.08
48 | Cc1cc(OCCCS(C)(=O)=O)cc(C)c1-c1cccc(COc2ccc3c(c2)OC[C@H]3CC(=O)O)c1 | inactive: 1.53
49 | CCN(CC)C(=S)SSC(=S)N(CC)CC [Disulfiram] | inactive: -1.11
50 | O=c1cc(-c2ccccc2)oc2cc(O)cc(O)c12 [Chrysin] | inactive: -0.404
51 | O=c1sn(-c2cccc3ccccc23)c(=O)n1Cc1ccccc1 [Tideglusib] | inactive: 0.238
52 | Nc1c2c(nc3ccccc13)CCCC2 [Tacrine HCl] | inactive: -0.501
53 | COc1ccc(S(=O)(=O)Nc2cccnc2Nc2ccc(O)cc2)cc1 | active: -4.47
54 | Cc1ccc(NC(=O)c2cccc(N(C)C)c2)cc1NC(=O)c1ccc(O)cc1 | inactive: 1.35
55 | O=C1NCCc2[nH]c(-c3ccncc3)cc21 | active: -3.19
56 | COC(=O)C1=C(C)NC(C)=C(C(=O)OC2CCCN(Cc3ccccc3)C2)C1c1cccc([N+](=O)[O-])c1 (stereo unspecified) [Benidipine HCl] | active: -3.36
57 | CCNC(=O)CCC/C=C\C[C@@H]1[C@@H](/C=C/[C@@H](O)CCc2ccccc2)[C@H](O)C[C@@H]1O [Bimatoprost] | inactive: -0.35
58 | O=C(CCCCCCC(=O)Nc1ccccc1)NO [Vorinostat (SAHA_ MK0683)] | active: -4.33
59 | C[C@H](Oc1ccc(S(C)(=O)=O)cc1C(=O)N1CCN(c2ncc(C(F)(F)F)cc2F)CC1)C(F)(F)F [Bitopertin] | inactive: 2.9
60 | NC[C@H]1O[C@H](O[C@H]2[C@H](O)[C@@H](O[C@H]3O[C@H](CO)[C@@H](O)[C@H](N)[C@H]3O)[C@H](N)C[C@@H]2N)[C@H](O)[C@@H](O)[C@@H]1O [Kanamycin sulfate] | inactive: 0.305
61 | CC[C@H]1OC(=O)C[C@@H](O)[C@H](C)[C@@H](O[C@@H]2O[C@H](C)[C@@H](O[C@H]3C[C@@](C)(O)[C@@H](O)[C@H](C)O3)[C@H](N(C)C)[C@H]2O)[C@@H](CC=O)C[C@@H](C)C(=O)/C=C/C(C)=C/[C@@H]1CO[C@@H]1O[C@H](C)[C@@H](O)[C@@H](OC)[C@H]1OC [Tylosin tartrate] | inactive: -0.316
62 | O=C(/C=C/c1ccc(O)c(O)c1)c1ccc(O)cc1O [Butein] | inactive: -2
63 | NCCCCCNCC12CC3CC(CC(C3)C1)C2 [IEM 1754 dihydrobroMide] | inactive: 0.197
64 | O=C(O)c1ccc2c(c1)nc(Nc1cccc(Cl)c1)c1ccncc12 [CX-4945 (Silmitasertib)] | inactive: -0.737
65 | CC1(C)O[C@@H]2C[C@H]3[C@@H]4CCC5=CC(=O)C=C[C@]5(C)[C@H]4[C@@H](O)C[C@]3(C)[C@]2(C(=O)CO)O1 [Desonide] | inactive: 6.69
66 | CC1(O)CCC(C(C)(C)O)CC1 (stereo unspecified) [Terpin hydrate] | inactive: 0.832
